Measured values published in PubChem BioAssay AID488969 (Vanderbilt High Throughput Screening Facility, 2010).
Over roughly 110,000 compounds, “z-score” has its median near -0.1; the highest 2% begin near 2. This is one part of the list. Calls of active or inactive are those of the source.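 The calls were made as follows: active = z-score in the third read window above 3 or below -3; inactive = the rest.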

These compounds were tested against Metabotropic glutamate receptor 8 (Rattus norvegicus) (UniProt P70579) (assay: rat mGluR8 modulators via GIRK flux, primary screen, cell-based, thallium flux, HTS (AID 488969)). Conditions: HEK293 rat mGluR8, GIRK (G protein-gated inwardly rectifying potassium channel) thallium flux, FluoZin2; at 10 µM; stronger effect = higher value; submaximal glutamate (EC20) added with thallium.
Sequence of UniProt P70579 (P70579 whole entry, looked up): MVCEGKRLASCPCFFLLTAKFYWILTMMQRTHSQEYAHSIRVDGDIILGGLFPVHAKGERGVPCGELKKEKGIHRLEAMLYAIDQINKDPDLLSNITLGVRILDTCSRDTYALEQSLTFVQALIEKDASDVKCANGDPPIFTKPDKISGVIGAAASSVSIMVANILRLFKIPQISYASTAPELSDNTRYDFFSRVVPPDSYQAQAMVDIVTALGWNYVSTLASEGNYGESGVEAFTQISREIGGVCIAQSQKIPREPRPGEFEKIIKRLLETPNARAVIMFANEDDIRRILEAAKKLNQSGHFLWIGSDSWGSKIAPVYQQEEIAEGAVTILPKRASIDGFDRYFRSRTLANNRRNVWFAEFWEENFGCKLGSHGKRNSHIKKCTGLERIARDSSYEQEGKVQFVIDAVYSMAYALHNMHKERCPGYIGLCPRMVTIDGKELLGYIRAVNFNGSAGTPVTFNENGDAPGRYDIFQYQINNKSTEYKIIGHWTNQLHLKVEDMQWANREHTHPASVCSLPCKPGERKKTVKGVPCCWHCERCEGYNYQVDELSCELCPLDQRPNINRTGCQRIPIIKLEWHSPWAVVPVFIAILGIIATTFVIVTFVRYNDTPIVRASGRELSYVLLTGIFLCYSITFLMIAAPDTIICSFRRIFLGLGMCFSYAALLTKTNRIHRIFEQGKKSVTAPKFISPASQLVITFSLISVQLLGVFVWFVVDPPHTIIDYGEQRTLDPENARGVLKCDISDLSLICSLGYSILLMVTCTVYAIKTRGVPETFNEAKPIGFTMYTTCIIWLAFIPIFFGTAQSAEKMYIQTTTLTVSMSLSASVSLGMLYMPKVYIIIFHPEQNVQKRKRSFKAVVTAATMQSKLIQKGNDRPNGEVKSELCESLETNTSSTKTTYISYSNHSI
Compound `CC(C)(C)c1ccc(NC(=O)CSc2nnc(-c3n[nH]c4ccccc34)o2)cc1` has a z-score of -0.181. `O=C(COc1ncnc2c(Cl)cc(Cl)cc12)NCCC1=CCCCC1` showed a z-score of -0.073. In the case of `CCCCOCCCNC(=O)CN1C(=O)c2ccccc2C1=O`, the z-score is reported as 0.016. With `CC(Oc1ccccc1)c1ccnn1S(=O)(=O)c1ccccc1` (stereo not given) the z-score was -0.666. With `Cc1ccc(N2CCN(C(=O)c3ccccc3NC(=O)C3CC=CCC3C(=O)O)CC2)cc1` (stereo not given) the z-score was -0.339. Work on `CC(=O)NCCc1ccc(S(=O)(=O)N2CCCC2)cc1` yielded a z-score of -0.316. For `Cc1ccccc1NC(=O)NC1(C(=O)NCCCN2CCOCC2)CCCCC1`, the z-score was -0.494. `C=CCn1c(NC(=O)c2ccc(Br)o2)c(S(=O)(=O)c2ccccc2)c2nc3ccccc3nc21` gave a z-score of -0.0755. Work on `N#Cc1ccc(-n2nccc2-c2cnc3n(c2=O)CCS3)cc1` yielded a z-score of 0.18. With `CCOC(=O)C1=c2s/c(=C\c3cccnc3)c(=O)n2C(N)=C(C(=O)OC)C1c1cccnc1` (stereo not given) the z-score was 0.984. Compound `CSc1ccc2[nH]c(=O)cc(C)c2c1` has a z-score of -0.124. With `CCOC(=O)N1CCN(c2c(-c3ccc(C(C)C)cc3)c(=O)c2=O)CC1` the z-score was -0.0283. `CCn1c(-c2ccc(F)cc2)cnc1SCC(=O)N1CCCCC1C` (stereo not given) showed a z-score of -0.0837. `CCOCCCn1cnc2c(c1=O)c1nc3ccccc3nc1n2-c1ccccc1` showed a z-score of 0.113. `CCOC(=O)c1ccccc1NC(=O)c1ccc(N(C)S(C)(=O)=O)cc1` was tested, and the z-score was -0.303. In the case of `CC(=NCC1CCCO1)C1=C(O)CC(C)(C)CC1=O` (stereo not given), the z-score is reported as 0.0595. Work on `CNC(=S)NNC(=O)c1cccn(Cc2cccc(Cl)c2)c1=O` yielded a z-score of -0.271. For `COc1ccccc1-n1cnc2c(c1=O)c1nc3ccccc3nc1n2-c1ccc(C)c(C)c1`, the z-score was -0.142. `COC(=O)c1cccc(-n2nnnc2SCC(=O)Nc2nc3c(s2)CCCC3)c1` showed a z-score of -0.637. For `O=C(Nc1ccc2c(c1)C(=O)N(c1ccccc1)C2=O)C1CCCO1` (stereo not given), the z-score was -0.0825. For `Cc1ccc(NCCC(=O)c2ccc(Cl)c(Cl)c2)cc1`, the z-score was -0.39. For `COC(=O)C(Cc1c[nH]c2ccccc12)NC(=O)CNC(C)=O` (stereo not given), the z-score was -0.137. Compound `COC(=O)c1scc(C)c1N/N=C(\C)c1ccc(F)cc1F` has a z-score of -0.0374. `O=C(Nc1nc(-c2ccc(-c3ccccc3)cc2)cs1)c1cnccn1` showed a z-score of 0.18. `CC(OC(=O)c1nsc(Cl)c1Cl)C(=O)NC(C)(C)C` (stereo not given) gave a z-score of 0.181. Compound `Cc1ccccc1NS(=O)(=O)c1ccc(OCC(=O)NCc2ccco2)cc1` has a z-score of -0.304. Work on `O=C(NCCc1c[nH]c2ccccc12)Nc1cccc2ccccc12` yielded a z-score of -0.627. In the case of `CC(C)NC(=O)c1cc2nc(-c3ccco3)cc(C(F)(F)F)n2n1`, the z-score is reported as -0.419. With `COc1cc(C(=O)Nc2ccc3c(c2)OCCO3)ccc1-n1cnnn1` the z-score was -1.24. With `CC(C)OC(=O)CSc1nnc(-c2ccccc2)n1N` the z-score was -0.106. `CCS(=O)(=O)N1CCN(c2ccc([N+](=O)[O-])c(NC(C)c3ccccc3)c2)CC1` (stereo not given) was tested, and the z-score was -1.02. `O=C(CNS(=O)(=O)c1ccccc1)N1CCN(c2ccccc2)CC1` showed a z-score of -0.0656. `O=C(C[n+]1ccc(-c2nnc3n2CCC3)cc1)c1ccc(Cl)cc1` showed a z-score of -0.128. With `Cc1ccc(-n2ncc3c(=O)n(CC(=O)Nc4cccc(Cl)c4)cnc32)cc1C` the z-score was -1.6. `O=C(COC(=O)C1CC(O)CN1S(=O)(=O)c1ccc(Cl)cc1)c1ccccc1Cl` (stereo not given) was tested, and the z-score was 0.661. In the case of `Cc1ccc(CNC(N)=S)cc1`, the z-score is reported as 0.0494. `COc1ccc(S(=O)(=O)Nc2c3ccccc3nc(=O)n2-c2ccccc2)cc1` showed a z-score of -0.244. Compound `COc1ccccc1NC(=O)Nc1nnc(C(C)C)s1` has a z-score of -0.0837. `CCCCn1c(/N=C/c2ccccc2NS(=O)(=O)c2ccc(C)cc2)nc2ccccc21` gave a z-score of -0.153. Compound `CCCNc1nc(N)nc(-c2cc(Cl)ccc2OC)n1` has a z-score of -0.121. For `COc1ccc(N/C(N)=N/c2nc(CSc3ccc(C)cc3)cc(=O)[nH]2)cc1`, the z-score was 0.674. `COc1ccc(C(=O)c2coc3ccc(O)c(CN4CCCCC4)c23)cc1` showed a z-score of 0.0413. `CN(C)CCCN(C(=O)CCc1ccccc1)c1nc2c(F)cccc2s1` showed a z-score of 1.15. Work on `CCc1c(C)nc(N2CCN(Cc3ccccc3)CC2)[nH]c1=O` yielded a z-score of -0.111. With `Cc1ccc(C)c(-c2nc3ccc(N)cc3[nH]2)c1` the z-score was -0.0213. In the case of `COc1cccc(N2CCN(C(c3ccccn3)c3nnnn3C(C)(C)C)CC2)c1` (stereo not given), the z-score is reported as 0.761. For `CCOC(=O)c1oc2c(c1C)/C(=N/O)CCC2`, the z-score was 0.105. `C=CCn1c(N)c(C(=O)Nc2ccc(C)c(C)c2)c2nc3ccccc3nc21` gave a z-score of 0.661. Compound `CCSc1nnc(NC(=O)c2ccc(C)o2)s1` has a z-score of -0.482. With `O=C(NC1CCCC1)c1noc2c1CCCCC2` the z-score was -0.282. In the case of `COc1ccc2[nH]c(=O)c(-c3noc(-c4ccccc4)n3)cc2c1`, the z-score is reported as -0.102. `O=C(N1CCOCC1)N1CCN(S(=O)(=O)N2CCOCC2)CC1` was tested, and the z-score was 0.338. Work on `Cc1ccc(-c2nn(-c3ccccc3)cc2C(=O)OCC(=O)Nc2ncc(Cl)cc2Cl)cc1` yielded a z-score of -0.251. For `O=C(N/N=C/c1ccco1)c1cccc(S(=O)(=O)Nc2ccccc2Cl)c1`, the z-score was -0.35. `CCOC(=O)N1CCN(C(=O)COc2cccc3c2CCN(Cc2ccccc2F)C3=O)CC1` was tested, and the z-score was -0.403. With `CC(C)(C)c1ccc(C(=O)N/C(=C\c2cccs2)C(=O)NCc2ccco2)cc1` the z-score was -0.333. `COC(=O)CSc1nnc(CNc2ccc(Cl)cc2)n1-c1ccccc1` was tested, and the z-score was -0.193. `Cc1ccc(C(=O)CC(=O)c2cccc(F)c2)c(O)c1` was tested, and the z-score was active: 8.38. `CCCCOc1ccc(C(=O)N2CCCC2C(=O)O)cc1` (stereo not given) showed a z-score of -0.212. For `CCc1ccc(-c2nc(CN3CCCC(C(=O)O)C3)c(C)o2)cc1` (stereo not given), the z-score was 1.34. Compound `O=C(NCc1cccnc1)c1cccnc1-c1nc2ccccc2s1` has a z-score of -0.394. In the case of `COc1ccc(N2C3=C(CC4=C2CCCC4=O)C(=O)CCC3)cc1`, the z-score is reported as -0.404. Work on `COc1ccc2c(c1OC)C(=O)OC2Nc1ccccn1` (stereo not given) yielded a z-score of -0.13. In the case of `COc1cc2ccccc2cc1C(=O)Nc1cccnc1`, the z-score is reported as -0.706. In the case of `Cn1nnnc1SCC(=O)NC1CCCCC1`, the z-score is reported as -0.00615. In the case of `Cc1ccc(C)c(C(=O)CN2C(=O)NC3(CCC(C)CC3)C2=O)c1` (stereo not given), the z-score is reported as -0.568. `O=C(Nc1ccccc1)N1CCN(c2ccc(C(F)(F)F)cn2)CC1` gave a z-score of -0.362. Compound `Fc1cccc(NC(=S)NCCCN2CCOCC2)c1` has a z-score of -0.0987. `O=C(NC1CCCCCCC1)c1ccc2c(c1)OCO2` was tested, and the z-score was 0.914. `COc1ccc(C2C(CC(=O)O)=C(O)C(=O)N2c2ccccc2)cc1` (stereo not given) was tested, and the z-score was 0.235. With `C=CCOc1cccc(C2C(C(=O)c3ccc(C)o3)=C(O)C(=O)N2c2nccs2)c1` (stereo not given) the z-score was active: -3.73. `COc1cc(CNC(C)(C)C)cc(Br)c1OCc1cccs1` was tested, and the z-score was 0.388. `COc1ccc(/C=C/C(=O)Nc2cc(C)nn2-c2nc3ccccc3n2Cc2cccc([N+](=O)[O-])c2)cc1` showed a z-score of -0.333. For `CN(C(=S)Nc1ccc(F)cc1)C1(c2ccccc2Cl)CCCCC1=O` (stereo not given), the z-score was -0.257. `O=C(CCS(=O)(=O)c1ccccc1)Nc1nccs1` gave a z-score of 0.417. In the case of `CCn1c(CSc2nc3ccccc3[nH]2)nc2cc(C(=O)O)ccc21`, the z-score is reported as -0.153. `Cc1cccc(N2C(=O)CC(Sc3ccccc3C(=O)O)C2=O)c1` (stereo not given) showed a z-score of 0.0899. `O=[N+]([O-])c1cc(C(F)(F)F)ccc1NCCc1c[nH]c2ccc(O)cc12` showed a z-score of -0.00187. For `O=[N+]([O-])c1cc(S(=O)(=O)Nc2ccccc2)ccc1NCc1cccnc1`, the z-score was -0.109. For `O=C1C2C3CC(C(Br)C3Br)C2C(=O)N1c1ccccn1` (stereo not given), the z-score was -0.244. In the case of `Cc1ccc(-c2ccnc3nc(Sc4ncc(C(F)(F)F)cc4Cl)nn23)cc1`, the z-score is reported as -1.69. Work on `O=c1cc(N2CCOCC2)[nH]c(=O)n1Cc1ccc(F)cc1` yielded a z-score of 0.497. For `Cc1cc(NC(=O)CSc2nc(CCC3CCCC3)nc3ccccc23)no1`, the z-score was 0.284. `O=C(CCS(=O)(=O)c1ccc(Br)cc1)NC1CCCC1` gave a z-score of -0.148. For `CCOC(=O)C1CCN(C(=O)COc2cc(C)c(Br)c(C)c2)CC1`, the z-score was -0.264. `CC(=O)Nc1nnc(C)s1` was tested, and the z-score was active: 3.66. `Cc1ccc(-c2nnc(SCC(=O)CC(=O)Nc3ccccc3)n2-c2ccccc2)cc1` showed a z-score of -0.207. For `Cc1cccc(OCC(=O)NC2CCCc3ccccc32)c1C` (stereo not given), the z-score was -0.26. For `Cn1nc(C(F)(F)F)c(/C=N/OC(=O)c2ccccc2)c1Sc1ccc(Cl)cc1`, the z-score was -0.0788. `CCOC(=O)CS(=O)(=O)c1ccc(C(F)(F)F)cn1` showed a z-score of -0.0154. In the case of `N#CC1=C(N)OC2=C(C(=O)CCC2)C1C1CC=CCC1` (stereo not given), the z-score is reported as -0.603. `CCCCc1c(O)nc(SCC(=O)c2ccccc2)[nH]c1=O` showed a z-score of 0.997. `Cc1c(Cl)cccc1NC(=O)CSCC(N)=O` was tested, and the z-score was -0.121. For `CCN1CCN(c2cc(C)c3cc(NC(=O)c4ccccc4F)ccc3n2)CC1`, the z-score was -0.352. Compound `Cc1ccc(CNC(=O)CCSCCC(=O)NCc2ccc(C)cc2)cc1` has a z-score of 0.233. In the case of `CCOC(=O)c1c(C)[nH]c(C(=O)COC(=O)CNC(=O)C2CCCCC2)c1C`, the z-score is reported as -0.797. In the case of `CC(C)c1ccc2oc(=O)cc(CN3CCN(c4ccc(F)cc4)CC3)c2c1`, the z-score is reported as -0.507. With `CCn1c(SCc2ccc([N+](=O)[O-])cc2)nnc1C(C)NC(=O)c1ccc(C)cc1` (stereo not given) the z-score was -0.256. Compound `CCc1sc(N(C(=O)Cc2ccccc2)c2ccc(F)cc2)nc1-c1ccccc1` has a z-score of -0.45. For `CCn1cnc2c1c(=O)n(Cc1nnc3n1-c1ccccc1SC3)c(=O)n2Cc1ccccc1`, the z-score was 0.0685. `COC(=O)CP(=O)(c1ccccc1)c1ccccc1` showed a z-score of 0.162. With `COc1cc(C(=O)Nc2nnc(C)s2)cc(OC)c1OC` the z-score was 0.381. Work on `Cn1c(=O)c2c3c(sc2n2c(SCC(N)=O)nnc12)CC(C(C)(C)C)CC3` (stereo not given) yielded a z-score of 1.12. `Cn1c(-c2ccccc2)cnc1SCc1nc2ccccc2c(=O)[nH]1` was tested, and the z-score was -0.441. Work on `CCOc1ccc(CN(C)CC(=O)Nc2cc(OC)c([N+](=O)[O-])cc2C)cc1` yielded a z-score of -0.49. Compound `CCCC1(C(=O)OCC)NC(c2ccc(N(C)C)cc2)C2C(=O)N(c3ccccc3)C(=O)C21` (stereo not given) has a z-score of -0.167. In the case of `O=C(NCc1ccc2c(c1)OCO2)c1c(F)c(F)c(F)c(F)c1F`, the z-score is reported as -0.0878. For `CCC1CCCCN1C(=O)CSc1nnc(-c2ccc(Cl)s2)o1` (stereo not given), the z-score was -0.825. With `CCS(=O)(=O)N1CCN(C2Cc3ccccc3C2)CC1` the z-score was -0.309. Compound `COC(=O)C1=C(C)Nc2ncnn2C1c1ccc(C)o1` (stereo not given) has a z-score of 1.09.
